Test results as given in PubChem BioAssay AID624296 (National Center for Advancing Translational Sciences (NCATS), 2012).
In all, about 350,000 compounds went through this assay and about 9,900 (2.8%) were called active. Inconclusive means that the source gave no clear call. Such entries were picked first, then a sample of the others. Calls come from the whole dose curve; as a rule, active = well fitted activation curve with a large enough effect; inconclusive = small, poorly fitted or top-dose-only effect; inactive = no such curve, though single readings can be large or run the other way. No potency is given beside an inconclusive call; the fits are too rough.

Assay: A quantitative high throughput screen for small molecules that induce DNA re-replication in MCF 10a normal breast cells. Note: nearly all actives have a fitted effect of over 50% in size.
Conditions: MCF 10A DNA re-replication, Hoechst nuclear intensity, 48 h; series mostly up to 46.1 µM
Potency is the fitted concentration of half-maximal effect; tags give direction and shape of the fitted curve.

Compound	Potency
COc1ccc(C(=O)Nc2ccnn2C2CCN(Cc3ccc4nonc4c3)CC2)cc1	inconclusive [activator, full curve]
N#CC(C#N)=C1CCc2ccccc2N1	inactive
COc1ccc(-c2nnc3n2-c2ccccc2SC3)cc1OC	inconclusive [activator, partial curve, poor fit]
CCOC(=O)C1=C(C)N=c2s/c(=C\c3ccc(OC(C)=O)cc3)c(=O)n2C1/C=C/c1ccccc1 (stereo not drawn)	inconclusive [activator, full curve, poor fit]
CCn1nc(C(=O)Nc2cccc(C(F)(F)F)c2)c(Cl)c1Cl	inconclusive [activator, single point]
CCc1ccc(NC(=O)N(Cc2ccco2)C(C)c2cccs2)cc1 (stereo not drawn)	inconclusive [activator, single point]
COc1ccc2c(COC(=O)CCS(=O)(=O)c3ccc(C)cc3)cc(=O)oc2c1	inconclusive [activator, partial curve, poor fit]
Cc1ccc(N(C(=O)c2snc(C(N)=O)c2N)C(C(=O)NCc2ccccc2)c2ccncc2)c(C)c1 (stereo not drawn)	inconclusive [activator, single point]
Cc1cc(C)c(OCC(=O)NCC(C)(C)N2CCOCC2)c(C)c1	inconclusive [activator, single point]
CCN1CCN(C2=C(NS(=O)(=O)c3ccc(NC(C)=O)cc3)C(=O)c3ccccc3C2=O)CC1	inconclusive [activator, single point]
O=C(CN1c2ccccc2S(=O)(=O)c2ccccc21)NCc1ccc(F)cc1	inconclusive [activator, single point]
CCOC(=O)c1cc(C#N)c(N2CCN(C)CC2)nc1-c1ccccc1	inconclusive [activator, single point]
CC1(c2ccc3ccccc3c2)NC(=O)N(CC(=O)Nc2cccc(S(=O)(=O)N3CCOCC3)c2)C1=O (stereo not drawn)	inconclusive [activator, partial curve, poor fit]
O=[N+]([O-])c1cc(Cl)ccc1N1CCN(c2ccccc2O)CC1	inconclusive [activator, single point]
COc1cccc(C2NC(=O)NC(C)=C2C(=O)Nc2ccc(C)cc2)c1OC (stereo not drawn)	inconclusive [activator, partial curve, poor fit]
CCN1CCN(c2ccc(NC(=O)c3cccc(OCc4ccccc4)c3)cc2)CC1	inconclusive [activator, partial curve, poor fit]
CSc1nc2ccc(Br)cc2[nH]1	inactive
O=C(CSc1nnc(NCc2ccccc2)s1)c1ccco1	inactive
CCN1CCN(CC(=O)Nc2cc3c(cc2C(C)=O)OCO3)CC1	inactive
COc1ccc(C)cc1NC(=O)c1cc(S(=O)(=O)N2CCCCC2)ccc1N1CCOCC1	inactive
Cc1cc(CNC(=O)c2cccc3c2C(=O)c2ccc(-c4ccc(F)cc4OCc4ccccc4)cc2S3(=O)=O)c(C(F)(F)F)o1	inconclusive [activator, single point]
Cc1ccc(C2(CCN)CCOC(C(C)C)C2)cc1 (stereo not drawn)	inactive

Compound	Potency
Clc1cccc(-c2nnc(SC/C=C/c3ccccc3)n2Cc2ccco2)c1	inconclusive [activator, single point]
Nc1ccc(-c2cc3ccccc3oc2=O)cc1	inactive
COc1cc(/C=N/NC(=O)CCN2CCN(Cc3ccccc3)CC2)cc(OC)c1OC	inconclusive [activator, full curve, poor fit]
COc1ccc(/C=N/Nc2ccccn2)c(OC)c1OC	inconclusive [activator, partial curve, poor fit]
COc1ccccc1/C=N\Nc1cn[nH]c(=O)c1Cl	inactive
NS(=O)(=O)c1cccc(NC(=O)CC2(CC(=O)O)CCCC2)c1	inactive
CC1=Nc2ccccc2/C1=C\c1sc(Nc2ccc(C)cc2)nc1O	inconclusive [activator, full curve, poor fit]
O=C(Cc1ccccc1[N+](=O)[O-])OCC(=O)c1ccccc1Br	inactive
CC(C)c1ccc(OCc2ccc(C(=O)NN3CCN(C)CC3)o2)cc1	inactive
CCOC(=O)Cn1cc(C(=O)c2ccco2)c2ccccc21	inactive
CCOc1ccc(NC(=O)CCSc2nnc(C)s2)cc1	inconclusive [activator, full curve, poor fit]
O=C(Nc1cccn(Cc2c(F)cccc2Cl)c1=O)NC1CCCCC1	active: 20.6 µM
COCCNC(=O)c1cnn2c(C(F)(F)F)cc(-c3ccc(C)cc3)nc12	inactive
COc1c(Cl)cc(C(=O)Nc2ccccc2-c2ccccc2)cc1Cl	inconclusive [activator, single point]
CCN1C(=O)[C@H]2[C@@H](c3ccc(Cl)cc3)N3C(=O)CN(CC4CC4)C(=O)[C@@]3(C)[C@H]2C1=O	inconclusive [activator, full curve, poor fit]
O=C(Nc1nnc(SCc2ccc(F)cc2)s1)c1ccc2ncsc2c1	inconclusive [activator, single point]
Cc1c(C2(O)CCCCC2)[nH]c2ccc(C#N)cc12	inconclusive [activator, single point]
Cc1sc2nc(SCc3nnc(-c4cccs4)o3)n(C3CCCC3)c(=O)c2c1C	inconclusive [activator, partial curve, poor fit]
O=C(c1cccn2c(=O)c3cc(Cl)ccc3nc12)N1CCN(Cc2ccc3c(c2)OCO3)CC1	active: 10.3 µM
CCc1cccc(C)c1NC(=O)CCCSc1nc2ccccc2s1	inconclusive [activator, single point]
COc1ccc(C(=O)COC(=O)/C=C/c2ccc(S(=O)(=O)Nc3cccc(S(N)(=O)=O)c3)cc2)cc1	inconclusive [activator, single point]
